Test results published in paper PMC2896402.
Where a chain is given by its changes, count along the chain named. These are yes or no findings as the source states them, for the method shown. In cells and extracts the contact can be indirect. Some entries that bind do so weakly or less than the wild type. For part of these data: Where a sequence is shown, tags or fusion partners need not be part of it. Values belong to the substance of their own block, whether it stands above or below them.

Protein sequences, listed by entry. Tags and fused reporters are not part of them.
UniProt Q9Y297: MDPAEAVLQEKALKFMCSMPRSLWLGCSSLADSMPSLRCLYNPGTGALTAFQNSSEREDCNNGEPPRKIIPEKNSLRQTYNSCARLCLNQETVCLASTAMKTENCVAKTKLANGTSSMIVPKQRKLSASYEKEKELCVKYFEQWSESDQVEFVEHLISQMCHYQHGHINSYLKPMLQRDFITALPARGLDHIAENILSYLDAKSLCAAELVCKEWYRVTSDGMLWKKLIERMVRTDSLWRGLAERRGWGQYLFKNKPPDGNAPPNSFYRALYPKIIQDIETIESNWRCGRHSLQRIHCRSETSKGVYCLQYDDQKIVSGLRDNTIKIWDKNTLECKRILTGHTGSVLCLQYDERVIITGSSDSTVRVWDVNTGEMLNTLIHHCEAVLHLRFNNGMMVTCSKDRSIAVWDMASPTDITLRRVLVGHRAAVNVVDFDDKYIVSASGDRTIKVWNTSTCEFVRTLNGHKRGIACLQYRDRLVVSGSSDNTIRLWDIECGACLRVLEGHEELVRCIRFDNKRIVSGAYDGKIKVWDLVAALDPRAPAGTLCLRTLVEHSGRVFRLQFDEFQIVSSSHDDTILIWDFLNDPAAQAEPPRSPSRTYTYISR
UniProt Q9UKB1: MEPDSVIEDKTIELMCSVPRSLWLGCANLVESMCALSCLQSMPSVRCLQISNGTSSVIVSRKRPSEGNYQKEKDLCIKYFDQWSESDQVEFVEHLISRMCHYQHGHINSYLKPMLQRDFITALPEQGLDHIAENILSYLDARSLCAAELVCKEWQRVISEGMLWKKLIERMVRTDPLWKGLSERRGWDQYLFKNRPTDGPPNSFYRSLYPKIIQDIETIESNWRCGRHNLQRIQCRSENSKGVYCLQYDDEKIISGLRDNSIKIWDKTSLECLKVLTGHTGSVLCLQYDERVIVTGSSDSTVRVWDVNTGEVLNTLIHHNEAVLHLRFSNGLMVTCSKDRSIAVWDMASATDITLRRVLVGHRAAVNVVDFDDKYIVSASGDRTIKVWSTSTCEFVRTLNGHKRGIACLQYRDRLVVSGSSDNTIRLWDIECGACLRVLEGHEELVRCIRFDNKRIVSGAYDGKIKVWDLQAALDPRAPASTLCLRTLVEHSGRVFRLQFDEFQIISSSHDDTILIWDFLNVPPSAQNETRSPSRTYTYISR

Key:
HA-FOXO3 = HA-FOXO3 (UniProt O43524); experiment: co-IP; total lysates of 293T cells cotransfected with HA-tagged FOXO3 plus myc-tagged βTrCP1 or βTrCP1ΔF, and IKKβ or an empty vector; IP anti-myc and IB anti-HA, and reciprocal IP anti-HA and IB anti-myc
GST-FO(626–673) = target: T1, GST-FO(626–673) (UniProt O43524); experiment: pull-down; GST-FO fusion proteins on glutathione-Sepharose beads; 1 mg total lysate of 293T cells transfected with IKKβ or treated with TNFα (10 ng/ml); binding buffer 50 mM Tris pH 7.5, 100 mM NaCl, 10 mM MgCl2, 0.5% Nonidet P-40; overnight at room temperature or 4°C; IB with anti-βTrCP1 or anti-βTrCP2; only the target purified
T1 sequence: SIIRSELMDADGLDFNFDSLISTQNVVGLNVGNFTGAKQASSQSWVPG

GST-FO(301–346) = target: T2, GST-FO(301–346) (UniProt O43524); experiment: as above
T2 sequence: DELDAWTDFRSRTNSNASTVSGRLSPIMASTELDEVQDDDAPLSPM

GST-FO(301–673) = target: T3, GST-FO(301–673) (UniProt O43524); experiment: as above
T3 sequence: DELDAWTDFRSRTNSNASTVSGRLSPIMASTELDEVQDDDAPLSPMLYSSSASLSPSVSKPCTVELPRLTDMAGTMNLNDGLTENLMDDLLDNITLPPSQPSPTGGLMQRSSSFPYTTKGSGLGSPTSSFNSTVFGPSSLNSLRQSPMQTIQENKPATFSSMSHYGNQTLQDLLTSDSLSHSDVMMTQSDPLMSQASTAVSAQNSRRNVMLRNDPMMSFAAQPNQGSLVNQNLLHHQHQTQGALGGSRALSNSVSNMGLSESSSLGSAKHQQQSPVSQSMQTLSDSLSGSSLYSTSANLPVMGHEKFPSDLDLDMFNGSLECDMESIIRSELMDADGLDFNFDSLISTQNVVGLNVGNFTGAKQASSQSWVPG

GST-FO(579–625) = target: T4, GST-FO(579–625) (UniProt O43524); experiment: as above
T4 sequence: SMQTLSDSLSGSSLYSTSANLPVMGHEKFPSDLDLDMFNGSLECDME

GST-FO (301–673)AAA = target: T5, GST-FO (301–673)AAA (UniProt O43524); experiment: as above
T5 sequence: T3 sequence with S286A, S290A, S344A

[1] = target: FOXO3 (endogenous, MCF-7) (human (endogenous in MCF-7)) (UniProt O43524); experiment: co-IP; endogenous proteins in total lysates of MCF-7 cells; IP with anti-FOXO3 and IB with anti-βTrCP1, and reciprocal; lysates sonicated and precleared with nonspecific IgG, antibody at 4°C overnight; rabbit IgG or isotype mouse IgG as IP negative control
GST-FO(1–300) = GST-FO(1–300) (UniProt O43524); experiment: pull-down; GST-FO fusion proteins on glutathione-Sepharose beads; 1 mg total lysate of 293T cells transfected with IKKβ or treated with TNFα (10 ng/ml); binding buffer 50 mM Tris pH 7.5, 100 mM NaCl, 10 mM MgCl2, 0.5% Nonidet P-40; overnight at room temperature or 4°C; IB with anti-βTrCP1 or anti-βTrCP2; only the target purified

Substance: myc-βTrCP1 (from UniProt Q9Y297 1-605)
binding (HA-FOXO3): binds

binding (GST-FO(626–673)): binds
binding (GST-FO(301–346)): binds
binding (GST-FO(301–673)): binds
binding (GST-FO(579–625)): binds
binding (GST-FO (301–673)AAA): no binding
Substance: βTrCP1 (endogenous, 293T lysate) (from UniProt Q9Y297 1-605)

binding [1]: binds
Substance: βTrCP1 (endogenous, MCF-7) (from UniProt Q9Y297 1-605)

binding (GST-FO(301–673)): no binding
binding (GST-FO(1–300)): no binding
Substance: βTrCP2 (endogenous, 293T lysate) (from UniProt Q9UKB1 1-542)
